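Following 48 hours of exposure in 96-well plates, responses at five concentrations were used to interpolate endpoints linearly. Definition used: TGI = concentration required for complete inhibition of growth.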 Not every entry of the source has a single result; some have several. This list holds those alone. The source may hold further records. For some of these results: A record mostly stands for its own series of concentrations, not given here; a value can be the end of its range. For some of these results: The values listed for one entry repeat one measurement across runs, samples, wells, individuals or studies. Brackets tell where a record comes from. A, B and so on number the origins entry by entry. Some results are limits rather than exact numbers.

Among the test systems are XF 498 CNS; SNB-19 CNS; HCC-2998 colon; SNB-78 CNS; SR leukemia; SK-MEL-28 melanoma; SF-539 CNS.
Holding throughout (assay): NCI tumour cell line growth inhibition, 48 h

Consider `COc1ccc(/C=C\c2cc(OC)c(OC)c(OC)c2)cc1`, for which the TGI is 65.8 nM and 19.9 µM in the assay on XF 498 CNS; 379 nM and > 100 µM in the assay with SNB-19 CNS; 377 nM and > 100 µM with HCC-2998 colon; 0.577 nM and 89.2 µM in the assay with SNB-78 CNS.

As for `NCCCN=c1ccc2c3c1c(O)c1c(O)ccc(=O)c1c3[nH]n2CCNCCO`, the TGI in the assay on SR leukemia was 3.96 µM and > 250 µM; with SK-MEL-28 melanoma, > 250 µM [mean of 2 tests] and 15.2 µM [mean of 4 tests].

For the compound `COc1cc2c3cc1Oc1c(OC)c(OC)cc4c1C(Cc1ccc(O)c(c1)Oc1ccc(cc1)CC3N(C)CC2)N(C)CC4` (configuration not stated), in the assay on SF-539 CNS, the TGI was 87.3 µM [sample A] and 8.43 µM [sample B].

(Values after PubChem BioAssay (NCI).)
